According to the supplement of paper PMC9990464:
Counter-ions that a name gives are not always drawn. Some of the results follow. Most values come without repeats; read them as rough.

How the values were obtained:
Assay in all cases: area under viability curve (10 nM-1 µM), viability relative to solvent or trametinib-only control (AUC (arbitrary, % viability x concentration range)); higher = less growth inhibition (more viable cells)
[1] = system: SJNB8; conditions: 72 h compound exposure (96 h after seeding) h; trametinib co-treatment 0 µM
Method: (§1)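 Four neuroblastoma cell lines (KCNR, SKNBE, SJNB8, SKNAS) were seeded in 384-well plates. At 24 h, 1 µM trametinib or DMSO was added, followed by library compounds at 10 nM, 100 nM and 1 µM. Viability was read by MTT at 96 h and normalised to solvent-treated cells (DMSO arm) or to trametinib-only cells (trametinib arm). The area under the 3-point viability curve was computed in GraphPad Prism; units are as given (approx. 100000 = no effect).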

[2] = system: SKNAS; conditions: 72 h compound exposure (96 h after seeding) h
Method: as §1

[3] = system: SKNBE; conditions: 72 h compound exposure (96 h after seeding) h
Method: as §1
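Note: KCNR is a neuroblastoma cell line carrying an ALK mutation, in this DMSO arm without trametinib, viability was normalised to solvent-treated cells.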

SMILES | area under viability curve [1] | area under viability curve ([2]; trametinib co-treatment 0 µM) | area under viability curve ([2]; trametinib co-treatment 1 µM) | area under viability curve ([3]; trametinib co-treatment 0 µM) | area under viability curve ([3]; trametinib co-treatment 1 µM)
O=C1c2ccccc2C(=O)c2c(NCCc3ccc(O)cc3)ccc(NCCc3ccc(O)cc3)c21 | 106000 | 112000 | 94400 | 113000 | 103000
O=C(O)CCCc1ccccc1 [Phenylbutyrate·Na] | 90100 | 113000 | 104000 | 103000 | 108000
O=C(CCCN1C(=O)c2cccc3cccc(c23)C1=O)NO [Nullscript] | 80200 | 97800 | 98900 | 99100 | 103000
CC1(C)CCC(CN2CCN(c3ccc(C(=O)NS(=O)(=O)c4ccc(NCC5CCOCC5)c([N+](=O)[O-])c4)c(Oc4cnc5[nH]ccc5c4)c3)CC2)=C(c2ccc(Cl)cc2)C1 [Venetoclax] | 78500 | 112000 | 66300 | 87800 | 89200
COc1cccc2c1C(=O)c1c(O)c3c(c(O)c1C2=O)C[C@@](O)(C(C)=O)C[C@@H]3O[C@H]1C[C@H](NC(=O)OCc2ccc(O[C@@H]3O[C@H](CO)[C@H](O)[C@H](O)[C@H]3O)c([N+](=O)[O-])c2)[C@H](O)[C@H](C)O1 | 80100 | 79500 | 76300 | 91600 | 65100
COc1ccc(-c2ccc3c(N4CCOC[C@@H]4C)nc(N4CCOC[C@@H]4C)nc3n2)cc1CO | 46100 | 39800 | 45000 | 42100 | 22600
Oc1cc(O)cc(/C=C/c2ccc(O)c(O)c2)c1 [Piceatannol] | 89900 | 117000 | 100000 | 103000 | 93100
N#CCNC(=O)c1ccc(-c2ccnc(Nc3ccc(N4CCOCC4)cc3)n2)cc1 [Momelotinib] | 73900 | 67600 | 94800 | 77800 | 84100
CC(C(=O)Nc1cccc(/N=C/c2c(O)ccc3ccccc23)c1)c1ccccc1 (stereo not given) [Salermide] | 85000 | 103000 | 99100 | 107000 | 110000
C#Cc1cccc(Nc2ncnc3cc(OCCOC)c(OCCOC)cc23)c1 [Erlotinib HCl] | 95100 | 119000 | 98900 | 94800 | 91800
Nc1ccccc1NC(=O)CCCCCCC(=O)Nc1ccccc1 | 93800 | 120000 | 106000 | 107000 | 90900
Cn1c(=O)n(-c2ccc(C(C)(C)C#N)cc2)c2c3cc(-c4cnc5ccccc5c4)ccc3ncc21 [Dactolisib] | 40700 | 50200 | 54700 | 30900 | 18300
CC(C)(C#N)c1cc(Cn2cncn2)cc(C(C)(C)C#N)c1 [Anastrozole] | 75600 | 72700 | 95300 | 92700 | 95800
Nc1nc(Cl)nc2c1ncn2[C@H]1C[C@H](O)[C@@H](CO)O1 [Cladribine] | 62300 | 39100 | 73700 | 91200 | 93000
CC(=O)[C@]1(O)Cc2c(O)c3c(c(O)c2[C@@H](O[C@H]2C[C@H](N)[C@H](O)[C@H](C)O2)C1)C(=O)c1ccccc1C3=O [Idarubicin HCl] | 39100 | 30800 | 26000 | 19700 | 6720
Cc1nc(=O)c2cc(CN(C)c3ccc(C(=O)N[C@@H](CCC(=O)O)C(=O)O)s3)ccc2[nH]1 [Raltitrexed] | 48400 | 69300 | 84500 | 52200 | 28600
